According to the supplement of paper PMC10338343:
± gives the standard deviation. Whole data set: some 5,500 sequences, median “pre-steady-state target cleavage rate” near 0.1, cut for the highest 2% near 0.64. Only a part is listed here, and it is no random draw.

The sequences below were run on MIWI (PIWIL1) piRISC loaded with piRNA #2 (30 nt) (assay: pre-steady-state target cleavage rate (min^-1); MIWI and MILI are mouse PIWI proteins and EfPiwi is from a freshwater sponge; tags in brackets are library labels; higher = faster piRNA-guided slicing of the target). Conditions: guide: piRNA #2 5'p-UUAGGUAACCCAGUAGAUCCAGAGGAAUUC; auxiliary factor: 500 nM mouse GTSF1.
Method in brief: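 At 33 °C in HEPES–potassium acetate buffer, a transcribed, DNA-blocked target RNA library […] was exposed for 0–8 or 0–960 min to 1 nM active affinity-purified piRISC carrying a single synthetic guide, with or without 500 nM GTSF1 partner protein. Uncleaved targets were sequenced and normalised to depth and to weakly complementary targets. With three trials pooled and k3 capped at 0.0001 min^-1, a burst-and-steady-state fit produced the pre-steady-state cleavage rate.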
For CAAAUCCUCUGGAUCUACUGGCUUACCUAA, the “pre-steady-state target cleavage rate” value was 0.109 ± 0.02. In the case of CUACUCCUCUGGAUCUACUGGGUUACCUAA, the “pre-steady-state target cleavage rate” value is reported as 0.246 ± 0.039. For CUUAACCAUCUGGAUCUACUGGGUUACCUAA, the “pre-steady-state target cleavage rate” value was 0.317 ± 0.027. For GAAUAGGUCUGGAUCUACUGGGUUACCUAA, the “pre-steady-state target cleavage rate” value was 0.154 ± 0.032. CUAUAUCCUCUGGAUCUACUGGGUUACCUAA was tested, and the “pre-steady-state target cleavage rate” value was 0.352 ± 0.071. With CUUAUCCUCUGCAUCUACUGCGUUACCUAA the “pre-steady-state target cleavage rate” value was 0.377 ± 0.032. In the case of CUUAACGUCUGGUUCUACUGGGUUACCUAA, the “pre-steady-state target cleavage rate” value is reported as 0.358 ± 0.033. For CUUAACCUCUGGAUGUACUGGGUUACCAAA, the “pre-steady-state target cleavage rate” value was 0.215 ± 0.02. With GAAUUCCUCUGGAUCUACUGGGUUAACCUAA the “pre-steady-state target cleavage rate” value was 0.31 ± 0.045. For CUUAAGGAGUGGAUCUACUGGGUUACACUAA, the “pre-steady-state target cleavage rate” value was 0.0696 ± 0.016. With CUUUUCCUGUGCAUCUACUGGGUUACCUAA the “pre-steady-state target cleavage rate” value was 0.264 ± 0.025. For GAAUUCCUCUGGAUCUACUGGGUUUGGUAA, the “pre-steady-state target cleavage rate” value was 0.244 ± 0.061. CUUAUCCUCUGGACUACUGGGUUACCUAA was tested, and the “pre-steady-state target cleavage rate” value was 0.166 ± 0.021. For GAAUUCCUCUGGAUGUACUGGGUUACCAAA, the “pre-steady-state target cleavage rate” value was 0.327 ± 0.049. GAAUUCCUCUGGUACUACUGGGUUACCUAA was tested, and the “pre-steady-state target cleavage rate” value was 0.581 ± 0.092. CUUAAGCUCUGGAUCUUCUGGGUUACCUAA was tested, and the “pre-steady-state target cleavage rate” value was 0.0956 ± 0.018. In the case of CAAUUCCUCUGGAUCAAGUGGGUUACCUAA, the “pre-steady-state target cleavage rate” value is reported as 0.00786 ± 0.0037. With CUUAAGCUCUGGUAGUACUGGGUUACCUAA the “pre-steady-state target cleavage rate” value was 0.063 ± 0.0097. In the case of CUAUUCCACUGGAUCUACUGGGUUAGCUAA, the “pre-steady-state target cleavage rate” value is reported as 0.16 ± 0.04. In the case of CAAUUCCUCUGGAUCAACUGGGUAACCUAA, the “pre-steady-state target cleavage rate” value is reported as 0.145 ± 0.027. CAAUUCCUCUGGAUCUACUGCGUUAGCUAA was tested, and the “pre-steady-state target cleavage rate” value was 0.128 ± 0.056. For CUAUUCCUCUGGAUCUACAGGGUAACCUAA, the “pre-steady-state target cleavage rate” value was 0.13 ± 0.024. In the case of CUUAUCCUCUGGAUCUACUGGGUUACUUAA, the “pre-steady-state target cleavage rate” value is reported as 0.562 ± 0.05. In the case of CUUAAGCUCUGGAACUACUCGGUUACCUAA, the “pre-steady-state target cleavage rate” value is reported as 0.0422 ± 0.011. CAAUUCCUCACCAUCUACUGGGUUACCUAA was tested, and the “pre-steady-state target cleavage rate” value was 0.573 ± 0.069. CUUAAGGACCGGAUCUACUGGGUUACCUAA was tested, and the “pre-steady-state target cleavage rate” value was 0.0763 ± 0.025. For CUUUUCCUCUGGAUCUACUGGGAUACCUUA, the “pre-steady-state target cleavage rate” value was 0.142 ± 0.026. With CUUAAGGUCUGGAUCUACUGAGGUUACCUAA the “pre-steady-state target cleavage rate” value was < 0.0001. For CUUAACUCUCUGGAUCUACUGGGUUACCUAA, the “pre-steady-state target cleavage rate” value was 0.105 ± 0.016. For GAAAUCCUCUGGAUCUACUGGGUAACCUAA, the “pre-steady-state target cleavage rate” value was 0.111 ± 0.026. CAAUUCGUCUGCAUCUACUGGGUUACCUAA was tested, and the “pre-steady-state target cleavage rate” value was 0.538 ± 0.045. With CUUAAGGUCAGGAUCUACUGGGUUACCUAA the “pre-steady-state target cleavage rate” value was 0.101 ± 0.023. With CUUAAGCUCUGGAUCUACUGCGUUACCAAA the “pre-steady-state target cleavage rate” value was 0.117 ± 0.029. In the case of CUUAAGGUCUGGAUCUACAGGGUUUCCUAA, the “pre-steady-state target cleavage rate” value is reported as 0.1 ± 0.014. GAAAUCCUCUGGAUCAACUGGGUUACCUAA was tested, and the “pre-steady-state target cleavage rate” value was 0.234 ± 0.05. CUUAAGGAGAGAUCUACUGGGUUACCUAA was tested, and the “pre-steady-state target cleavage rate” value was 0.00757 ± 0.0027. With CUAUUCCUCUGCAUCUACUGGGUUACCUUA the “pre-steady-state target cleavage rate” value was 0.325 ± 0.05. CUUAACCUCAGGAUCUACUGCGUUACCUAA was tested, and the “pre-steady-state target cleavage rate” value was 0.321 ± 0.037. For CUUAUCCUCUGGAUCUACUGGGUUAUCUAA, the “pre-steady-state target cleavage rate” value was 0.569 ± 0.082. For CUUAAGGAGACCUUCCUACUGGGUUACCUAA, the “pre-steady-state target cleavage rate” value was 0.00294 ± 0.0029. In the case of CUUAAGCUCUGGAUCUAGUGGCUUACCUAA, the “pre-steady-state target cleavage rate” value is reported as 0.00679 ± 0.004. With CUUAAGGUCUGGAUGUACUGGGUUUCCUAA the “pre-steady-state target cleavage rate” value was 0.0738 ± 0.026. For CUUAUCCUCUGGAUCUACUGCGUUUCCUAA, the “pre-steady-state target cleavage rate” value was 0.124 ± 0.03. CUUAAGGACUGGAUCUACUGGGUAACGUAA was tested, and the “pre-steady-state target cleavage rate” value was 0.0406 ± 0.025. CUUAAGCUCUGGAUCUUCUGGCUUACCUAA was tested, and the “pre-steady-state target cleavage rate” value was 0.0206 ± 0.0097. CUAUUCCUCUGGAUCUACUCGGUUACCUUA was tested, and the “pre-steady-state target cleavage rate” value was 0.0832 ± 0.022. CUAUUCCUCUGGAUCUACUGGGUUACGAAA was tested, and the “pre-steady-state target cleavage rate” value was 0.204 ± 0.043. For CUUAUCCUCAGGAACUACUGGGUUACCUAA, the “pre-steady-state target cleavage rate” value was 0.486 ± 0.032. CUAUUCCUCUGGAUCUACUGGGUUACCCUAA was tested, and the “pre-steady-state target cleavage rate” value was 0.185 ± 0.058. In the case of CUUAAGGUCUCGAUCUACUGGGAUACCUAA, the “pre-steady-state target cleavage rate” value is reported as 0.117 ± 0.022. For CUUUUGCUCUGGAUCUACUGGGAUACCUAA, the “pre-steady-state target cleavage rate” value was 0.118 ± 0.014. In the case of CAAUUCCUCUGGAUCUACUGGGUAUACCUAA, the “pre-steady-state target cleavage rate” value is reported as 0.602 ± 0.068. CUAUUCGCUCUGGAUCUACUGGGUUACCUAA was tested, and the “pre-steady-state target cleavage rate” value was 0.134 ± 0.026. In the case of “CAAUUCCUCUGGAUCUACUGGGUUACCUAC [g2:g29:cont:t1C]”, the “pre-steady-state target cleavage rate” value is reported as 0.415 ± 0.051. For CUUAAGCUCUGGAAUCUACUGGGUUACCUAA, the “pre-steady-state target cleavage rate” value was 0.115 ± 0.013. In the case of CUUAUCCUCUGGAUGUAGUGGGUUACCUAA, the “pre-steady-state target cleavage rate” value is reported as 0.0926 ± 0.022. CUUAUCCACUGGAUCUAGUGGGUUACCUAA was tested, and the “pre-steady-state target cleavage rate” value was 0.289 ± 0.025. With CUUAAGGUCUGGAUCUACUUGGUUACCUAA the “pre-steady-state target cleavage rate” value was 0.00523 ± 0.0043. In the case of CUUAAGGACUGGAUCUACAGGGUUAGCUAA, the “pre-steady-state target cleavage rate” value is reported as 0.036 ± 0.017. CUAUUACCUCUGGAUCUACUGGGUUACCUAA was tested, and the “pre-steady-state target cleavage rate” value was 0.227 ± 0.041. For CAAUUCCUCGUGGAUCUACUGGGUUACCUAA, the “pre-steady-state target cleavage rate” value was 0.189 ± 0.037. CUAUACCUGUGGAUCUACUGGGUUACCUAA was tested, and the “pre-steady-state target cleavage rate” value was 0.381 ± 0.036. With CUUAACCUCUGCAUCUACUCGGUUACCUAA the “pre-steady-state target cleavage rate” value was 0.0836 ± 0.01. For CUUUUCCGCUGGAUCUACUGGGUUACCUAA, the “pre-steady-state target cleavage rate” value was 0.517 ± 0.046. For CUUAAGCUCUGGAUCUAGUGGGUUACGUAA, the “pre-steady-state target cleavage rate” value was 0.0687 ± 0.0089. In the case of GAAUUCCUCUGCAUCUUCUGGGUUACCUAA, the “pre-steady-state target cleavage rate” value is reported as 0.389 ± 0.036. CUUUACCUCUGGAUCUACUGGGUUAGCUAA was tested, and the “pre-steady-state target cleavage rate” value was 0.313 ± 0.035. With CUUAAGGACUGGAUCUACAGGCUUACCUAA the “pre-steady-state target cleavage rate” value was 0.0145 ± 0.01. In the case of GUAUUCCUCUGGAUCAACUGGGUUACCUAA, the “pre-steady-state target cleavage rate” value is reported as 0.0482 ± 0.025. CUUAAGGUGUGGAUCUACUGGGUUACCUUA was tested, and the “pre-steady-state target cleavage rate” value was 0.0732 ± 0.015. In the case of CUUAACCUCUGGAUCUACUGGGUUAGCAAA, the “pre-steady-state target cleavage rate” value is reported as 0.0935 ± 0.014. For CUUAAGGACUGGAUCUACUGGGUUACCGAA, the “pre-steady-state target cleavage rate” value was 0.0317 ± 0.024.
